B1: CPEB3 Ribozyme (parent)
chain: UAACAGGGGGCCACAGCAGAAGCGUUCACGUCGCAGCCCCUGUCAGAUUCUGGUGAAUCUGCGAAUUCUGCUGUAUAUCUC

The source gives no read counts; variants with many changes may rest on few reads.

In this data set the parent is B1. Put plainly: self-cleavage, relative activity (ratio to wild type); higher = more cleavage; in vitro, sequencing. In short, it runs like this:
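For each CPEB3 ribozyme variant, relative activity is its cleaved/total read fraction divided by the unmutated ribozyme's. Barcoded error-prone PCR libraries were transcribed by T7 RNA polymerase (5 hours, 37°C) and held in DNase I for 15 min before an EDTA stop, with cleavage occurring throughout. Template-switching reverse transcription and Illumina sequencing were used to read the RNAs. A 5-read minimum applied, and results are the mean of three batches.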
As to U1A A13U A21G A47G A65G, the self-cleavage turned out to be 0.09.
As to U1A A18U A20G A35G U60A U67C, the self-cleavage was determined as 0.3.
With U1A C44U U51G U66A the figure was 0.17; with U1A A13C A15U A56U, 0.39; with U1C A2U A18G A35G C40U U67C, 0.26.
The same measure for U1A G7A A13G U60A: 0.2; for U1C A2G U31A A47G U69C: 0.09.
As to U1A A5U A28G A57G, the self-cleavage turned out to be 0.69.
In the case of U1A A5G U41A U72A A77U, the self-cleavage came out at 0.79.
The same measure for U1A C14U G16A G19C U78A: 0.1.
Regarding U1A A15G U51A U69A, the self-cleavage amounted to 0.32.
The same measure for U1C A2U A28G A64G U78C: 0.2.
In the case of U1A G9A A20G U41C U72C, the self-cleavage was 0.27.
With U1A A2G A28G U51C U66C the figure was 0.29; with U1A A3G U25G A45G G70A U78C, 0.09.
With U1A A2C C27U A65G the figure was 0.07; with U1A A18G A20G C23G U25C U72C G73C, 0.07; with U1A A3G U78C, 1.15.
For the variant U1C A2G A3C U69C A75U A77U, the self-cleavage is 0.58.
As to U1A A20C U43A A45G A56G, the self-cleavage stood at 0.25.
Consider U1A U51C U80A, for which the self-cleavage was 1.1.
The same measure for U1A G10A U67A: 0.34; for U1A A3G U54C: 1.11; for U1A A13G U43C: 0.65.
As for U1A A45G C81U, the self-cleavage was determined as 0.98.
With U1A G19C U48C the figure was 0.35; with U1A A20C U31A A45G A56G, 0.14.
Regarding U1A A3U A21U U26A U41G U51C U74A, the self-cleavage was found to be 0.35.
With U1A A3G A21U A45G G70A U78C the figure was 0.48; with U1A G8A G16U U41C U54C U78C C79U, 0.05; with U1A G8U C32U A35C, 0.06.
As for U1A A5U G6U U54C U58A, the self-cleavage amounted to 0.16.
With U1A A18G G53C the figure was 0.62.
With U1A A18G C29A U76C the figure was 0.31.
On to U1A U26C A57U, for which the self-cleavage turned out to be 0.41.
The same measure for U1A C68A U72G: 0.22; for U1A A21U A64G U66A: 0.62.
On to U1A A18U U43C, for which the self-cleavage turned out to be 0.24.
With U1C A2G G16U A21U G52A the figure was 0.06.
With U1A A28G U41C the figure was 0.65; with U1A G30C U43C U48C C50U U80G, 0.04.
Turning to U1A A3G C11A, the self-cleavage was 0.37.
With U1A A3G U60C A64G U78C the figure was 0.52.
On to U1A A13C G19C C32A C39A, for which the self-cleavage was 0.33.
On to U1A A13U U54A U67A, for which the self-cleavage is 0.79.
Regarding U1A G8C C12U U31A G73A, the self-cleavage turned out to be 0.43.
Take U1A U26C A35U U60C U76A: the self-cleavage turned out to be 0.11.
The same measure for U1A A3G U74C A75G U76A: 1.24; for U1A A13G A45G A47G: 0.33; for U1A U26C U67C: 0.31.
For the variant U1A A35G U43C G55U, the self-cleavage was determined as 0.96.
For the variant U1A A20U A21G A57C A64U U67C U78C, the self-cleavage amounted to 0.06.
For the variant U1A U60C U72C, the self-cleavage was 0.31.
The same measure for U1A U25A A35U A45G U48C U67C: 0.14.
For the variant U1A U41C G42C U66C U69A U74A, the self-cleavage is 0.17.
U1A U43C U48C: the self-cleavage is 0.25.
Turning to U1A A3U U48C U60C G63C, the self-cleavage turned out to be 0.26.
For the variant U1A C11A A64G, the self-cleavage was found to be 0.38.
As to U1A A20G A21G U43G, the self-cleavage turned out to be 0.13.
The same measure for U1A A64G U72A: 0.65; for U1A U25A C39U A47U A64G: 0.12; for U1C A2C U41C: 0.96.
With U1A A5U A13U G33U U69G the figure was 0.24; with U1A A13G G22A, 0.24.
On to U1A C12G U72A U78C, for which the self-cleavage amounted to 0.09.
Consider U1A A20G G36U U41C U49A C62U, for which the self-cleavage worked out at 0.25.
With U1A A5G G55U U69A A77U, the self-cleavage was 0.32.
On to U1C A2G U41A U43C G46U A57G G61U, for which the self-cleavage was found to be 0.21.
Regarding U1A A18U A64G U78C, the self-cleavage was determined as 0.19.
As for U1A A15G A28G U58C U67C A77U, the self-cleavage came out at 0.11.
As to U1A G7A A20G, the self-cleavage was 0.09.
Regarding U1A U43A C44U U74C A75U, the self-cleavage was determined as 0.97.
With U1C A2G U26A A28U U66A, the self-cleavage came out at 0.1.
The same measure for U1A A21G U25C U69A: 0.19; for U1A G7U U54C U80C: 0.37; for U1A A13U U41C U60A A75G U76C: 0.74.
Consider U1A C14A A21G C29U G55U, for which the self-cleavage turned out to be 0.08.
As for U1C A2G A18U U51A, the self-cleavage is 0.42.
With U1A A13U U51C U66C U74C, the self-cleavage stood at 0.59.
Consider U1A U26G G46U U51G U67A, for which the self-cleavage turned out to be 0.13.
With U1A A15G A28G C39U U41C A56G the figure was 0.35; with U1A U48A C59U, 0.06.
Take U1A A3G A15G: the self-cleavage turned out to be 0.82.
The same measure for U1A G6A A57G: 0.32.
With U1A G16C G24C, the self-cleavage was determined as 0.3.
The same measure for U1A C11G A15U C17U U48A C59U U66A: 0.04; for U1A A28G A35C: 0.67.
For U1A A35G A47U A75G U78G, the self-cleavage turned out to be 1.28.
For the variant U1A G9A A15G A21G, the self-cleavage was determined as 0.25.
With U1A A20U U31C the figure was 0.21.
In the case of U1C A2G C23U U26A C37A U72A U80C, the self-cleavage came out at 0.15.
In the case of U1A A15G C39G U60A, the self-cleavage worked out at 0.06.
In the case of U1A G9U G42A U69A, the self-cleavage is 0.12.
With U1A G22C C79A the figure was 0.27; with U1A A18G U43G A56G U60C, 0.22.
Take U1C A2G A15G A20G U41A U54A A64G: the self-cleavage is 0.47.
With U1A A13G U48A the figure was 0.16; with U1A A18U U25A U26C U31C A45G, 0.08.
On to U1A U41C A57C, for which the self-cleavage amounted to 0.39.
U1A A35G U80C: the self-cleavage turned out to be 1.33.
With U1A U41A U74C the figure was 0.31; with U1A G9A U25C C29U U49G U76C, 0.05.
The same measure for U1A U25A A35G U41A A57C U60C U80A: 0.08; for U1A G10A C34A U49C A64G: 0.07; for U1A U51C G52U: 0.73.
The same measure for U1A A20G U31C U41C G53A: 0.62.
For U1A A20G G33U A56U U78C, the self-cleavage came to 0.13.
The same measure for U1A A21U U78C: 0.33; for U1C A2G G10A U67G: 0.24; for U1A A2C U74A U80C: 1.22.
The same measure for U1A C29G A35G C40U U69A U72A A75G: 0.07; for U1A A15G U51C A56G: 0.94; for U1A U54A U66C: 0.45.
With U1A C4A A15U U51C A57U U72C the figure was 0.3; with U1A A13U G16U A45U, 0.28.
Regarding U1A A13G A15G G36U U49C, the self-cleavage stood at 0.05.
For U1A G33C U41A A45G G46C, the self-cleavage came to 0.22.
With U1C A2U A5U G16C A77U the figure was 0.17; with U1C A2G C14U A35U U43A U67C, 0.08; with U1A A18U G42A, 0.19.
With U1A G6A C11G U25C A65G the figure was 0.25.
With U1A A45G C79G the figure was 0.76; with U1A C17A U43C C81U, 0.1; with U1A A18U U54A A56U U74A, 0.22.
Consider U1A A3C A77G, for which the self-cleavage was 1.19.
With U1A A3G U48C U49C U51C the figure was 0.39; with U1A G42A U80A, 0.33.
The same measure for U1A A13U U31C A56U: 0.27; for U1A A2G A18G U41C A64U: 0.27; for U1A A3G A21G G53C A64G U74A U78C: 0.61.
The same measure for U1A C12G A13G U43C: 0.3; for U1A A15G A28G C39G A57G: 0.08.
Turning to U1A C59A U76G, the self-cleavage stood at 0.32.
The same measure for U1A C12U A18G A20G G33A A57G U78C: 0.09; for U1A A3G A18U G33A A47U: 0.31; for U1A A15G A20G U26C U48A U69C A75G: 0.31.
With U1A U25A U26C A47G A57U, the self-cleavage was 0.14.
With U1A G9A U41A U66C U78A the figure was 0.04; with U1A A21G U51A, 0.29; with U1A U26C U60C, 0.24.
As to U1A G33A U43G C59A U72C, the self-cleavage stood at 0.12.
In the case of U1A C40G A57G U80A, the self-cleavage came out at 0.07.
The same measure for U1A A2G G9U U69A: 0.41; for U1A U43C U78A: 0.78.
U1A A18U A35U C39U G52A A57G: the self-cleavage came to 0.09.
With U1A U25C U41A A75U the figure was 0.07; with U1C A2G G10A, 0.09.
With U1A U60A G70C the figure was 0.36.
With U1A U43A A45U C62A U74C U80A, the self-cleavage is 0.13.
The same measure for U1A U49A A56U: 1.02.
The same measure for U1A A5G A13U U25C A65G: 0.2.
On to U1A A35G U51C, for which the self-cleavage turned out to be 1.22.
U1A U67A A77U: the self-cleavage was found to be 0.45.
As to U1A U25C A65G, the self-cleavage amounted to 0.29.
On to U1C A2G U51C A64U C68A U78C, for which the self-cleavage was 0.12.
Take U1A A15G C17U A28G: the self-cleavage was found to be 0.49.
For U1A A3C A13U U72C, the self-cleavage was 1.17.
The same measure for U1A A3G A56G U60C U66A U74C: 0.36; for U1A U31C C39A A45C U49A: 0.1; for U1A A5U A28G A35G U74C A75G: 1.21.
With U1A G10U U58C the figure was 0.08; with U1A A28G A35G U54A, 1.15; with U1C A2G G6A A13G A18G C37A A75U, 0.05.
The same measure for U1A G30A U48C U58G U78A: 0.03.
In the case of U1A U26A A57G, the self-cleavage was found to be 0.74.
As to U1A A3C A21G U25G, the self-cleavage was determined as 0.06.
With U1A A21G C44A the figure was 0.36.

Values taken from the RNAGym collection of RNA variant scans (doi:10.1093/nar/gkz1192).
